Assay results: PMC8979985
Results are given in words; binding and its absence hold for the method and conditions named. Binding seen in cells or lysates may run through a third protein. Some results given as binding are weak or reduced against the parent protein; the word gives no strength.

Chains of the proteins cited; added tags and fusions are not shown. Lines headed by an entry give the natural chain unless they say otherwise; changes in a name come on top. A line that says so, or that is headed by a name, gives the form on record, which may keep a tag or linker. Residues count along the entry.
UniProt P00519: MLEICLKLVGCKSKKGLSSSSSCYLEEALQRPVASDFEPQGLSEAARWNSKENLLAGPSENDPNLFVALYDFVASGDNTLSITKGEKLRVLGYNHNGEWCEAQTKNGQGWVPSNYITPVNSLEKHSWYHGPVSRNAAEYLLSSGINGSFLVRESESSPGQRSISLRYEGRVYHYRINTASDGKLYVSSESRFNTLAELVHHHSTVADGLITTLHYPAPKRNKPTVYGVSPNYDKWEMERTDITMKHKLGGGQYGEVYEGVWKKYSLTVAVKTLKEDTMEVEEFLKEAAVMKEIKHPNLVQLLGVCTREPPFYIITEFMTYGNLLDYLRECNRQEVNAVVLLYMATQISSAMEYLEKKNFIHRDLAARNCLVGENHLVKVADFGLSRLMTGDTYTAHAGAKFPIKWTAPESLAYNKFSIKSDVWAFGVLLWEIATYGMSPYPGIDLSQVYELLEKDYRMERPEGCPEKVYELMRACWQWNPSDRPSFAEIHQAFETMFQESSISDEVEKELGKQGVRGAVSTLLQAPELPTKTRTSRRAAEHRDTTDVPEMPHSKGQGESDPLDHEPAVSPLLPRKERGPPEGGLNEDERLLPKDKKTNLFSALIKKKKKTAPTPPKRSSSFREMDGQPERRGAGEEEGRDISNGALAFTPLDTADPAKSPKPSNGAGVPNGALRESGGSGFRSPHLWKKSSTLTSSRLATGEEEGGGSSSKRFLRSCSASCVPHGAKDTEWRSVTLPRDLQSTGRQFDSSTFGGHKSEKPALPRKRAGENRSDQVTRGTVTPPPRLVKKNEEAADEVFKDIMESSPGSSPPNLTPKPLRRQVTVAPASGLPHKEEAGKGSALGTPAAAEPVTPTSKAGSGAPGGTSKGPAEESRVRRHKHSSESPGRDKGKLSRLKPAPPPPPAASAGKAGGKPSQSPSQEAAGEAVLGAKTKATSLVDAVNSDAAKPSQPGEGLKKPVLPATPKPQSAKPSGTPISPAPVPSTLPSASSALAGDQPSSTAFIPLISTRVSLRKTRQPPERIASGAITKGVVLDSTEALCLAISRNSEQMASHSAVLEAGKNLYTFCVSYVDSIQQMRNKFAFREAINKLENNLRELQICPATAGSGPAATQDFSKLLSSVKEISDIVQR
GST-c-Abl-SH3: residues 61-121 of P00519
Myc-c-Abl (P00519-2, form named): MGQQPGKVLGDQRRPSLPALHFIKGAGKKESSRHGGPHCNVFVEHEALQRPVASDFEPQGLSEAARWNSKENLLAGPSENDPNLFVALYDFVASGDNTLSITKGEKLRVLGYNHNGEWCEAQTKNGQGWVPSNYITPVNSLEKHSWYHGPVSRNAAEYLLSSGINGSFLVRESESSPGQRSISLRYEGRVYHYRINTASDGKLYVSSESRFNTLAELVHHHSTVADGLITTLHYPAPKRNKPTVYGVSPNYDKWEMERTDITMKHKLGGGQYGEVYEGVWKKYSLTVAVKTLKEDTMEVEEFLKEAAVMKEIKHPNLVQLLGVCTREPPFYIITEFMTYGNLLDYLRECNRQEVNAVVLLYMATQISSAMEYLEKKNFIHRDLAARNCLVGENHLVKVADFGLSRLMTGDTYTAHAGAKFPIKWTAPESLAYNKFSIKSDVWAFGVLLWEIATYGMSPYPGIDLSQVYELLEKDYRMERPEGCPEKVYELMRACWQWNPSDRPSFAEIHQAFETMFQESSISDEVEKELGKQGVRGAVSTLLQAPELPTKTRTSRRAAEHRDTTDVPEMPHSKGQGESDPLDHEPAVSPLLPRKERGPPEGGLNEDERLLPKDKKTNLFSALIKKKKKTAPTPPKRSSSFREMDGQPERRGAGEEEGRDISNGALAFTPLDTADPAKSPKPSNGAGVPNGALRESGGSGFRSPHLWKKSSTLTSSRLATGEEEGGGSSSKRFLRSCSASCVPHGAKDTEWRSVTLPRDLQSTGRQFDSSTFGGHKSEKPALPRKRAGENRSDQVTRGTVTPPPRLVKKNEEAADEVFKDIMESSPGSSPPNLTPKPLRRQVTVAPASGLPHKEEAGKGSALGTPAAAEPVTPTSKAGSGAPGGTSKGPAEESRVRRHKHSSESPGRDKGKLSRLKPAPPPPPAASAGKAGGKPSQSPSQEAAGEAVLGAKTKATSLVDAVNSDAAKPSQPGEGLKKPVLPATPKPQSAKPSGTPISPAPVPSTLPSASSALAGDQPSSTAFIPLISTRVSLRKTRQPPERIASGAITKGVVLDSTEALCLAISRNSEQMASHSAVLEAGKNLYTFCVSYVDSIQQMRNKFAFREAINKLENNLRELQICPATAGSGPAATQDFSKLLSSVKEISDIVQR
UniProt O00165: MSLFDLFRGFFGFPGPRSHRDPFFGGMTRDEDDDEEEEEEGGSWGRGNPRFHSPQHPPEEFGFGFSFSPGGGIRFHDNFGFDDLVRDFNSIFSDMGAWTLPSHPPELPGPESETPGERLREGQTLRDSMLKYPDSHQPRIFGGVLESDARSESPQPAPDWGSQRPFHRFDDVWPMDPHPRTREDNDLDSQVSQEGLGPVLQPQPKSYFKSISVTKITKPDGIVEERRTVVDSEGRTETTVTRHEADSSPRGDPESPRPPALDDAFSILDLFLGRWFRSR
Myc-HAX-1(Q190X): residues 1-189 of O00165
Myc-HAX-1 (1–128): residues 1-128 of O00165
Myc-HAX-1 (129–279): residues 129-279 of O00165

Tests used:
GST-c-Abl-SH3 = GST-c-Abl-SH3 (UniProt P00519); test: pull-down; 2 μg of GST or GST fusion protein on glutathione Sepharose beads incubated with lysates of transfected HEK 293 cells for 2 h at 4°C; washed with lysis buffer; immunoblot; only the target purified
[1] = biological target: c-Abl kinase (endogenous, MCF-7) (human (endogenous in MCF-7)) (UniProt P00519); test: proximity ligation; Duolink in situ PLA on fixed MCF-7 cells with rabbit anti-HAX-1 and mouse anti-c-Abl; cells untreated or treated with CDDP (25 mM, 8 h) or H2O2 (1 mM, 3 h; dose series)
[2] = biological target: c-Abl kinase (endogenous, MCF-7) (human (endogenous in MCF-7)) (UniProt P00519); test: co-IP; anti-c-Abl (K-12) immunoprecipitates of MCF-7 lysates, IgG as control, immunoblot; lysis buffer 50 mM Tris-HCl pH 7.5, 150 mM NaCl, 1% Nonidet P-40, 0.5 mM EDTA; cells untreated, treated with H2O2 (1 mM, 3 h), irradiated (10 Gy) or transfected with HAX-1
Flag-c-Abl = Flag-c-Abl (UniProt P00519); test: co-IP; HEK 293 cells co-transfected with Flag- and Myc-tagged plasmids; anti-Flag agarose immunoprecipitates, immunoblot with anti-Myc or anti-Flag; lysis buffer 50 mM Tris-HCl pH 7.5, 150 mM NaCl, 1% Nonidet P-40, 0.5 mM EDTA
[3] = biological target: phosphorylated c-Abl (endogenous, MCF-7) (human (endogenous in MCF-7)) (UniProt P00519); test: proximity ligation; in situ PLA on MCF-7 cells transfected with Myc-HAX-1 or Myc-vector; primary antibodies from two different species
Flag-HAX-1 (human) = Flag-HAX-1 (human) (UniProt O00165); test: co-IP; HEK 293 cells co-transfected with Flag- and Myc-tagged plasmids; anti-Flag agarose immunoprecipitates, immunoblot with anti-Myc or anti-Flag; lysis buffer 50 mM Tris-HCl pH 7.5, 150 mM NaCl, 1% Nonidet P-40, 0.5 mM EDTA

binding (GST-c-Abl-SH3)	binding (Flag-c-Abl)	Substance	also measured
binds		Flag-HAX-1 (from UniProt O00165-1 1-279)	
		HAX-1 (endogenous, MCF-7) (from UniProt O00165 1-279)	binding [1]: binds; binding [2]: binds
binds	binds	Myc-HAX-1 (129–279) (from UniProt O00165-1 129-279) (domain or fragment)	
	binds	Myc-HAX-1 (from UniProt O00165-1 1-279)	
		Myc-HAX-1 (in MCF-7 cells) (from UniProt O00165-1 1-279)	binding [3]: binds
	no binding	Myc-HAX-1(Q190X) (from UniProt O00165-1 1-189) (domain or fragment)	
		Myc-c-Abl (from UniProt P00519-2 1-1149) (enzyme)	binding (Flag-HAX-1 (human)): binds

Substance	binding (GST-c-Abl-SH3)	binding (Flag-c-Abl)	also measured
Myc-HAX-1 (1–128) (from UniProt O00165-1 1-128) (domain or fragment)	no binding (tested: 2 μg of GST-c-Abl-SH3 on the beads)	no binding	
